The list shows a part of the results.
Molecular target: T1, OsWOX13 (Oryza sativa, UniProt Q5QMM3 1-267)
T1 sequence: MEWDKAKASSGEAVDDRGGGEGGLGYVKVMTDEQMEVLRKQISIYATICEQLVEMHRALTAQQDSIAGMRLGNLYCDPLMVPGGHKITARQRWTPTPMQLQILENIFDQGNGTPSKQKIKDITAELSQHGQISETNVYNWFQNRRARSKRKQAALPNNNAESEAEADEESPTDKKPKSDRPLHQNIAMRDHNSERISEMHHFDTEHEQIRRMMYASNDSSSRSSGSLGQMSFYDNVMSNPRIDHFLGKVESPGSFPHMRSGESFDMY
Experiment: protein-binding microarray (RPBM); PBS, 2% BSA, 51.3 ng/ul salmon testes DNA, 50 uM zinc acetate, 200 nM TF, 25 C, 1 h; high values mean tight binding
Details: protein: recombinant; tags: N-terminal polyhistidine and DsRed monomer fusion (pET32a); label: CyDye5-dUTP incorporated in the synthesized complementary strand; 3' TTTTT single-stranded linker to array surface; dsDNA, one strand shown
Summary of the method: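 Per-feature fluorescence intensity (arbitrary units), read on an Axon 4000B scanner, is the binding signal. Transcription factors carrying an N-terminal polyhistidine tag and DsRed fusion were expressed in E. coli BL21-CodonPlus and purified on Ni–NTA. A custom Agilent array, made double-stranded by primer extension with Cy5-dUTP and blocked with 2% BSA, was incubated with 200 nM protein in PBS, 2% BSA, salmon testes DNA and 50 µM zinc acetate at 25 °C for 1 h and then washed.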

Sequence | binding signal
TGGAAATTATGAACCCTGACCAGTACTAGCAGGAGCAGCACGGAGTCACCTAGTGCAG | 4070 fluorescence intensity (a.u.)
GTGGTAGATTGGGGTTTTGAACCAAATATGAATGATCAAACGGAGTCACCTAGTGCAG | 14000 fluorescence intensity (a.u.)
ATAAATTAATTTTAAGTTTGTTTTCTCCGCCTAATTGTTGCGGAGTCACCTAGTGCAG | 29100 fluorescence intensity (a.u.)
TCTATAAATTTCTATTCAGATTTGTTTCGTTGTGTTAGAACGGAGTCACCTAGTGCAG | 4200 fluorescence intensity (a.u.)
CTAAATTTTCATACATACAGTTACCTTCAGTAAACATAGCCGGAGTCACCTAGTGCAG | 6340 fluorescence intensity (a.u.)
CCTGATTTGGCAATTATGAAATGTTGGGCAACCAAAAGACCGGAGTCACCTAGTGCAG | 39200 fluorescence intensity (a.u.)
TCAATTAATTGATTTATAATGATTTGGTCTTATCAATCCCCGGAGTCACCTAGTGCAG | 53400 fluorescence intensity (a.u.)
TGTAACTGAACTCATGATCATCATATCCGATCTGATCGGACGGAGTCACCTAGTGCAG | 4780 fluorescence intensity (a.u.)
GTTAAATAAATCTCTTGATATGTCATTGACTTACGCCGTGCGGAGTCACCTAGTGCAG | 4920 fluorescence intensity (a.u.)
TCGATGACATTTCTTGGAATTAGACGTTTGTTAATGACATCGGAGTCACCTAGTGCAG | 3250 fluorescence intensity (a.u.)
GAACTAATCTAATCTAATGCTAATTAATGGAATTGGCGCGCGGAGTCACCTAGTGCAG | 27800 fluorescence intensity (a.u.)
CTCAAAAGTTTGGGTTGATCGATCATTTGCCTACCGAAACCGGAGTCACCTAGTGCAG | 65500 fluorescence intensity (a.u.)
AATTATCATTAAAATTTCTAATCAATACTTAGCCTAAGAACGGAGTCACCTAGTGCAG | 4120 fluorescence intensity (a.u.)
AGGACCTGATGGATGCTGATGACTTTCGCCTAGTACTATTCGGAGTCACCTAGTGCAG | 6940 fluorescence intensity (a.u.)
AACTCTCCAATCAAATCGGCCGGGATGGAGTTTGACTTCCCGGAGTCACCTAGTGCAG | 7400 fluorescence intensity (a.u.)
CTGCCTAATCAACATGATGTTTCTCATAACAGGAAAGCAACGGAGTCACCTAGTGCAG | 8100 fluorescence intensity (a.u.)
AATAATGTACTAATCTATCGCTCTATTTTACAGTATTTAGCGGAGTCACCTAGTGCAG | 4160 fluorescence intensity (a.u.)
TATTGATTGATTGGTTAGTACTACAGTACTGTAGGAGTGGCGGAGTCACCTAGTGCAG | 64700 fluorescence intensity (a.u.)
AGTTATAACTGTCTTAACCGTAATCAGGACCCACTATATCCGGAGTCACCTAGTGCAG | 5400 fluorescence intensity (a.u.)
AGAACCCTTAATTGACTGTAGCGGCCAATGTAGAAACACACGGAGTCACCTAGTGCAG | 38400 fluorescence intensity (a.u.)
TTCAAAATTTATCATCAACGTCAAAGATTTATTATCGAAGCGGAGTCACCTAGTGCAG | 4550 fluorescence intensity (a.u.)
TAAATTAATAAATATACATGAATCAGCTAGCTAGCGGTAACGGAGTCACCTAGTGCAG | 3300 fluorescence intensity (a.u.)
GGCGCCATCCACTAATTGATCACTTGGTTGCTGTTCATCACGGAGTCACCTAGTGCAG | 17400 fluorescence intensity (a.u.)

Source: paper PMC7819943, “Rice protein-binding microarrays: a tool to detect cis-acting elements near promoter regions in rice”
